Reference: US12703728B2, “Interleukin 29 mutant protein” (priority 2020, dated 2026)
Marks after values point to notes of the source that are not given here.

B1: IL29CS (protein)
chain: MKPTTTGKGCHIGRFKSLSPQELASFKKARDALEESLKLKNWSCSSPVFPGNWDLRLLQVRERPVALEAELALTLKVLEAAAGPALEDVLDQPLHTLHHILSQLQACIQPQPTAGPRPRGRLHHWLHRLQEAPKKESAGCLEASVTFNLFRLLTRDLKYVADGNLSLRTSTHPEST
B2: IL29 control: IL29 wild-type protein, amino acid sequence SEQ ID NO: 1 with an additional M amino acid at the N-terminal (protein)
chain: KPTTTGKGCHIGRFKSLSPQELASFKKARDALEESLKLKNWSCSSPVFPGNWDLRLLQVRERPVALEAELALTLKVLEAAAGPALEDVLDQPLHTLHHILSQLQACIQPQPTAGPRPRGRLHHWLHRLQEAPKKESAGCLEASVTFNLFRLLTRDLKYVADGNLCLRTSTHPEST
modifications: additional N-terminal Met

Experiments:
[1] = tested on: human respiratory syncytial virus A2, RSV-A2
HEK293-ISRE-Luc cells = format: cell-based; details: IL29 control EC50 (0-point)/IL29 mutant EC50; IL29 control = 100%
Source text: The reporter gene method refers to ligating the promoter of interferon-stimulated response element (ISRE) to alkaline phosphatase cDNA, and transfecting them into HEK293 cells, and evaluating IL29 activity by measuring alkaline phosphatase in supernatant of HEK293 cells after IL29 stimulation (LaFleur D W, Nardelli B, Tsareva T Et al. Interferon-kappa, a novel type I interferon expressed in human keratinocytes. [J]. J. Biol. Chem., 2001, 276:39765-71).
HEK293-ISRE-Luc cells (purchased from National institutes for Food and Drug Control) were allowed to grow adherently in complete culture medium. The cells were passaged at a ratio of 1:4, 2-3 times per week, growing in complete culture medium. The cultured cells were taken to discard the culture medium, and the cells were washed once with PBS and then digested and collected; and the cell suspension containing 3.5×10^5 to 4.5×10^5 cells per 1 ml was prepared with assay culture medium (BIBCO).

| Molecule | Difference between the mean values (compared with the vehicle group) ([1]; Group 2: 50 mg/kg, first dose 1 h before inoculation) | RSV titer in lung tissue log10 (pfu/g lung) (Mean ± SEM) ([1]; mouse, in vivo, 50 mg/kg) | RSV replication in mice (in words) ([1]; ribavirin 1 h prior to infection, IL29 mutant 1 h prior, 1 h post and 24 h post virus infection) | Relative biological activity (%) (HEK293-ISRE-Luc cells) |
| --- | --- | --- | --- | --- |
| NC(=O)c1ncn([C@@H]2O[C@H](CO)[C@@H](O)[C@H]2O)n1 [ribavirin] | 1.479** | 2.376 ± 0.091 (N = 4) log10 (pfu/g lung) | significantly inhibits | – |
| B1 | – | – | – | 103 |
| B2 | – | – | – | 100 |
